From PubChem BioAssay AID504332 (National Center for Advancing Translational Sciences (NCATS), 2011)
The whole screen tested about 350,000 compounds, of which about 31,000 (8.9%) were called active. Inconclusive results, whose numbers are uncertain, are shown with a selection of clear calls. Calls come from the whole dose curve; as a rule, active = well fitted inhibition curve with a large enough effect; inconclusive = small, poorly fitted or top-dose-only effect; inactive = no such curve, though single readings can be large or run the other way. Where the call is inconclusive, the potency comes from a doubtful curve fit. More than one record can exist for a structure, and the calls need not agree.

Target: Histone-lysine N-methyltransferase EHMT2 (Homo sapiens) (UniProt Q96KQ7)
Chain of UniProt Q96KQ7 (Q96KQ7 whole entry, looked up): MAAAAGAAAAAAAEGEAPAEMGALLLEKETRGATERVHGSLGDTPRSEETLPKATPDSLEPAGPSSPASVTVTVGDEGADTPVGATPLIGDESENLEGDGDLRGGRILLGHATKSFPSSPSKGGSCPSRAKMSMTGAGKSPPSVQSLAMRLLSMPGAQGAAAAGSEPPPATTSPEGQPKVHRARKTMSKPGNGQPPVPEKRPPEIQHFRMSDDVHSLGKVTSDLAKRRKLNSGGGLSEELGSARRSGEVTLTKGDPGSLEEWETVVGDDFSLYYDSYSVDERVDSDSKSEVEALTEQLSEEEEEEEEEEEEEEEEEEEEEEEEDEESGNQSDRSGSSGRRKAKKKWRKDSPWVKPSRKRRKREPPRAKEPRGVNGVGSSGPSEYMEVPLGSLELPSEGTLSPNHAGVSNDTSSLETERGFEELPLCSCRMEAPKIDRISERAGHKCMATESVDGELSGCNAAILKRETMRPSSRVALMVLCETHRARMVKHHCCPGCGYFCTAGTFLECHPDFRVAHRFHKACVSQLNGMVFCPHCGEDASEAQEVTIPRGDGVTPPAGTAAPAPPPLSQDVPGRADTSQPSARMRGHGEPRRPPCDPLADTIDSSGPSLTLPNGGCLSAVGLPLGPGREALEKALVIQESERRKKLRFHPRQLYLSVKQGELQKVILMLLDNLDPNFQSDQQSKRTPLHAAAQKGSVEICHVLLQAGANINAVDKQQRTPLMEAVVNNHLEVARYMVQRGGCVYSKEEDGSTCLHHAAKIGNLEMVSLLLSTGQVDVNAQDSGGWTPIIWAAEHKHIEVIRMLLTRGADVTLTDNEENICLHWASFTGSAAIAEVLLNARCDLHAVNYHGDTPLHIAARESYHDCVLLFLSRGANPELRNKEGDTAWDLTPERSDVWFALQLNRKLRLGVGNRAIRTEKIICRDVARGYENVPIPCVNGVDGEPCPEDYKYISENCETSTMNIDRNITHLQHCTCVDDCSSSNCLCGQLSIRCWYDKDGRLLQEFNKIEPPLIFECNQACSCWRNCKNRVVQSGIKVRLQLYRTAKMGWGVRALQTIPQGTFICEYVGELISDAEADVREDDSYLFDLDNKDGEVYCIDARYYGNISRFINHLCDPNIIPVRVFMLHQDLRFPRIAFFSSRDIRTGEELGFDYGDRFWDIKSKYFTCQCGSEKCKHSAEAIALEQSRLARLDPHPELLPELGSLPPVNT
Test: qHTS Assay for Inhibitors of Histone Lysine Methyltransferase G9a; note: nearly all actives have a fitted effect of over 75% in size
Conditions: G9a H3K9 monomethylation, AlphaScreen, 2 h; activity, negative = inhibition: at 59 µM (top of the series) unless noted
How it was run: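 Using a bead-based AlphaScreen, monomethylated H3K9 product from 2 h room-temperature reactions (G9a 20 nM, peptide 500 nM, SAM 20 uM) was detected with 0.5 ug/mL rabbit anti-H3K9me1 antibody.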
% is set by controls: 0 for no effect and ±100 for the full control effect; potency is the fitted concentration of half-maximal effect; tags give direction and shape of the fitted curve.

**Q.** With `Cc1cc(NS(=O)(=O)c2ccc(NC(=O)CSc3nc4ncc(Br)cc4[nH]3)cc2)nc(C)n1` as the compound, how does the Potency read?
**A.** Its Potency is inconclusive: 35.5 µM [inhibitor, single point].

**Q.** How did the Potency turn out when `Cc1ccc(C(=O)NC(=C(Cl)Cl)S(=O)(=O)c2ccc(C)cc2)cc1` was run?
**A.** Its Potency is inconclusive: 20 µM [inhibitor, partial curve, poor fit].

**Q.** Which Potency does the source give for `CCCC(=O)Nc1cc2c(cc1C(=O)c1ccccc1)OCCO2` here?
**A.** The Potency was inconclusive: 1.78 µM [inhibitor, partial curve, poor fit].

**Q.** For `Cc1cc(C)cc(OCC(=O)Nc2cccc(S(=O)(=O)NC3=NCCC3)c2)c1`, which Potency is on record?
**A.** Its Potency is inconclusive: 10 µM [inhibitor, partial curve, poor fit].

**Q.** For `COc1cc(/C=N/n2c(-c3n[nH]c4c3CCC4)n[nH]c2=S)cc(OC)c1O`, which Potency is on record?
**A.** Its Potency is inconclusive: 1.78 µM [inhibitor, partial curve, poor fit].

**Q.** For `COc1ccc(OC)c(NC(=O)c2cc(S(=O)(=O)N(C)C)ccc2N2CCCC2)c1`, which Potency is on record?
**A.** Its Potency is inconclusive: 56.2 µM [inhibitor, partial curve].

**Q.** Which Potency does the source give for `COc1cc(C2C(C#N)=C(N)Oc3n[nH]c(-c4cccnc4)c32)cc(Br)c1O` (stereo not drawn) here?
**A.** The Potency was inconclusive: 56.2 µM [inhibitor, partial curve].

**Q.** For `CCCc1nnc(SCC(=O)Nc2cccc(C(F)(F)F)c2)o1`, which Potency is on record?
**A.** Its Potency is “inactive”.

**Q.** `CN(C(=S)Nc1ccc(SC(F)F)cc1)c1ccc(O)cc1` was tested. Which Potency did it give?
**A.** The Potency was active: 1.41 µM.

**Q.** `CCOc1ccc(-n2c(SCC(=O)N3CCC(C(=O)O)CC3)nc3ccccc3c2=O)cc1` was tested. Which Potency did it give?
**A.** The Potency was “inactive”.

**Q.** `Cn1nnnc1SCCCNCc1ccc(Cl)cc1` was tested. Which Potency did it give?
**A.** The Potency was “inactive”.

**Q.** `COc1ccc(Nc2oc(-c3ccc(COc4cccc(C)c4)o3)nc2C#N)cc1` was tested. Which Potency did it give?
**A.** The Potency was “inactive”.

**Q.** How did the Potency turn out when `COC(=O)CC1=C(C(=O)OC)[C@@H](c2ccccc2[N+](=O)[O-])C(C#N)=C(N)O1` was run?
**A.** The Potency was inconclusive: 79.4 µM [inhibitor, single point].

**Q.** For `Cc1ccc(C)c(CSc2nnc(-c3ccccn3)n2N)c1`, which Potency is on record?
**A.** Its Potency is “inactive”.

**Q.** With `Cc1cc(O)c2c(c1)C(O)(C1OC(CO)C(O)C(O)C1O)c1cccc(O)c1C2=O` (stereo not drawn) as the compound, how does the Potency read?
**A.** The Potency was inconclusive: 89.1 µM [inhibitor, single point].

**Q.** How did the Potency turn out when `CC(C)c1ccc(C2Sc3ccccc3NC3=C2C(=O)c2ccccc23)cc1` (stereo not drawn) was run?
**A.** The Potency was inconclusive: 11.2 µM [inhibitor, partial curve, poor fit].

**Q.** Which Potency does the source give for `CC(Sc1nnc(C(F)(F)F)n1C)C(=O)Nc1ccc(S(N)(=O)=O)cc1` (stereo not drawn) here?
**A.** The Potency was “inactive”.

**Q.** How did the Potency turn out when `COc1ccc(-c2nc3c(c(SCC(=O)Nc4cccc(O)c4)n2)Cc2c(CO)cnc(C)c2O3)cc1` was run?
**A.** The Potency was active: 11.2 µM.

**Q.** Which activity, negative = inhibition does the source give for `O=C(COc1ccccc1F)Nc1ccccc1C(=O)OCc1cc(=O)n2nc(C3CC3)sc2n1` here?
**A.** The activity, negative = inhibition was inactive: 3.28% [at 12.7 µM].

**Q.** With `COc1ccc(CN2C(=O)N(c3ccccc3)C(=O)C2CC(=O)Nc2ccccc2)cc1OC` (stereo not drawn) as the compound, how does the Potency read?
**A.** The Potency was “inactive”.

**Q.** `COc1ccc(C(C#N)Nc2ccc(C)cc2)cc1` (stereo not drawn) was tested. Which Potency did it give?
**A.** The Potency was inconclusive: 89.1 µM [inhibitor, single point].

**Q.** With `CC(C)OC(=O)Cn1c(=O)sc2ccccc21` as the compound, how does the Potency read?
**A.** The Potency was inconclusive: 1.12 µM [inhibitor, partial curve, poor fit].

**Q.** How did the Potency turn out when `Cc1c(NC(=O)Oc2ccccc2)sc(=S)n1C` was run?
**A.** Its Potency is active: 44.7 µM.

**Q.** Which Potency does the source give for `Cn1c(SCc2ccccc2F)nnc1-c1cnccn1` here?
**A.** The Potency was “inactive”.

**Q.** For `CCc1ccc(CN(C(=O)c2ccco2)C2CCS(=O)(=O)C2)cc1` (stereo not drawn), which Potency is on record?
**A.** Its Potency is inconclusive: 89.1 µM [inhibitor, single point].

**Q.** Which Potency does the source give for `COc1ccc(/C=C/C(=O)OCC(=O)N2CC(=O)Nc3ccccc32)cc1S(=O)(=O)N1CCOCC1` here?
**A.** Its Potency is active: 56.2 µM.

**Q.** With `COc1ccc(CNC(=O)c2cnc3sc(N4CCC(C)CC4)nn3c2=O)c(OC)c1` as the compound, how does the Potency read?
**A.** Its Potency is “inactive”.

**Q.** Which Potency does the source give for `COc1ccc(N2CCN(C(=O)c3ccc(S(=O)(=O)N4CCCCCC4)cc3)CC2)cc1` here?
**A.** Its Potency is inconclusive: 1 µM [inhibitor, full curve, poor fit].

**Q.** Which Potency does the source give for `CCc1ccccc1NC(=O)Cn1c(=O)n(Cc2ccco2)c(=O)c2ccccc21` here?
**A.** The Potency was inconclusive: 0.355 µM [inhibitor, full curve, poor fit].

**Q.** Which Potency does the source give for `CC(=O)Nc1ccc(Nc2nc3ccccc3nc2NS(=O)(=O)c2ccccc2)cc1` here?
**A.** The Potency was inconclusive: 28.2 µM [inhibitor, single point].

**Q.** Which Potency does the source give for `COc1ccc(C)cc1NC(=O)CN1c2cccc3cccc(c23)S1(=O)=O` here?
**A.** Its Potency is inconclusive: 39.8 µM [inhibitor, single point].

**Q.** How did the Potency turn out when `O=C(/C=C/c1ccccc1[N+](=O)[O-])Oc1ccccc1` was run?
**A.** Its Potency is active: 70.8 µM.

**Q.** `CCN(CCNC(=O)C1CCN(Cc2nc(-c3ccc(Cl)cc3)oc2C)CC1)c1ccccc1` was tested. Which Potency did it give?
**A.** Its Potency is inconclusive: 11.2 µM [inhibitor, partial curve, poor fit].

**Q.** `CC(CCc1ccco1)NC(=O)CSc1cc(=O)n(C)c2ccccc12` (stereo not drawn) was tested. Which Potency did it give?
**A.** The Potency was inconclusive: 50.1 µM [inhibitor, partial curve, poor fit].

**Q.** Which Potency does the source give for `CC(OC(=O)C12CCC(=O)N1c1ccccc1S2)C(=O)Nc1cccc(Cl)c1` (stereo not drawn) here?
**A.** Its Potency is inconclusive: 6.31 µM [inhibitor, single point].

**Q.** `COc1cc(/C=C/c2sc3ccccc3[n+]2CCCS(=O)(=O)[O-])ccc1O` was tested. Which Potency did it give?
**A.** The Potency was active: 11.2 µM.

**Q.** How did the Potency turn out when `CCc1nnc2c(N3CCN(c4cccc(C)c4)C(C)C3)nc3ccccc3n12` (stereo not drawn) was run?
**A.** The Potency was inconclusive: 3.16 µM [inhibitor, full curve, poor fit].

**Q.** For `Cn1c(=O)c(C(=O)CN2CCCCCC2)c(N)n(Cc2ccccc2)c1=O`, which Potency is on record?
**A.** The Potency was inconclusive: 31.6 µM [inhibitor, full curve, poor fit].

**Q.** Which Potency does the source give for `COc1cc(C(=O)NCC2(N(C)C)CCCCC2)ccc1OCc1ccccc1` here?
**A.** Its Potency is inconclusive: 89.1 µM [inhibitor, single point].

**Q.** `CCN(CC)CCN(C(=O)c1ccc(N2C(=O)CCC2=O)cc1)c1nc2cc3c(cc2s1)OCO3` was tested. Which Potency did it give?
**A.** Its Potency is active: 35.5 µM.

**Q.** How did the activity, negative = inhibition turn out when `Cn1cc([N+](=O)[O-])c(C(=O)NCc2ccco2)n1` was run?
**A.** The activity, negative = inhibition was inconclusive: -56.4% [inhibitor] [at 102 µM].

**Q.** Which Potency does the source give for `COc1ccc(C2C=C(c3ccc(F)cc3)Nc3nc(-c4ccc(Cl)cc4)nn32)cc1` (stereo not drawn) here?
**A.** Its Potency is “inactive”.

**Q.** With `COc1cccc(Cc2nc3ccccc3nc2SCC(=O)NCCc2ccccc2)c1` as the compound, how does the Potency read?
**A.** The Potency was inconclusive: 28.2 µM [inhibitor, single point].

**Q.** How did the Potency turn out when `CCC(NC(C)C)C(O)c1ccc(O)c2[nH]c(=O)ccc12` (stereo not drawn) was run?
**A.** Its Potency is inconclusive: 44.7 µM [inhibitor, partial curve, poor fit].

**Q.** Which Potency does the source give for `CCCC(=O)Nc1ccccc1NC(=O)c1cc(OC)c(OC)c(OC)c1` here?
**A.** The Potency was active: 89.1 µM.

**Q.** How did the Potency turn out when `Cc1ccc(C(CCN(Cc2ccccc2)C(=O)c2ccco2)c2ccco2)cc1` (stereo not drawn) was run?
**A.** The Potency was active: 50.1 µM.

**Q.** Which Potency does the source give for `N#CC1=C(N)OC2=C(CCc3ccccc32)C1c1ccccc1` (stereo not drawn) here?
**A.** The Potency was inconclusive: 20 µM [inhibitor, single point].

**Q.** For `Cc1cc(C)nc(SCc2cnc(C)nc2N)n1`, which Potency is on record?
**A.** Its Potency is inconclusive: 44.7 µM [inhibitor, partial curve].

**Q.** `O=c1c2cc3c(cc2[nH]c(=S)n1Cc1ccco1)OCO3` was tested. Which Potency did it give?
**A.** Its Potency is active: 39.8 µM.

**Q.** Which Potency does the source give for `CCc1ccc(NC(=O)CCn2c(-c3ccc(OC)cc3)cc(C(C)=O)c2C)cc1` here?
**A.** Its Potency is inconclusive: 8.91 µM [inhibitor, partial curve, poor fit].

**Q.** Which Potency does the source give for `COc1ccc(S(=O)(=O)N2CN(CCc3ccc(OC)c(OC)c3)c3nc4ccccc4nc32)cc1` here?
**A.** Its Potency is inconclusive: 89.1 µM [inhibitor, single point].

**Q.** `CC(=O)c1cccc(NC(=O)CN2C(=O)c3ccccc3Sc3ncccc32)c1` was tested. Which Potency did it give?
**A.** Its Potency is “inactive”.

**Q.** How did the Potency turn out when `COc1ccc(-n2nc3c(N4CCC(C(=O)NCc5cccc(F)c5)CC4)nnc(C)c3c2C)cc1` was run?
**A.** The Potency was inconclusive: 8.91 µM [inhibitor, partial curve, poor fit].

**Q.** With `CC(C)CN(C(=O)c1cc(Cl)nc2ccccc12)C1CCS(=O)(=O)C1` (stereo not drawn) as the compound, how does the Potency read?
**A.** The Potency was “inactive”.

**Q.** For `Cc1c(C)n(Cc2ccccc2)c2ccc(C(=O)NCc3ccccc3F)cc12`, which Potency is on record?
**A.** Its Potency is inconclusive: 28.2 µM [inhibitor, partial curve, poor fit].

**Q.** Which Potency does the source give for `COc1ccc([N+](=O)[O-])cc1NC(=O)Cc1ccccc1Cl` here?
**A.** The Potency was “inactive”.

**Q.** How did the activity, negative = inhibition turn out when `C/C=C/C=C/C(=O)N1CC[C@]23c4ccccc4N[C@H]4N(C)c5cccc6c5[C@]42CCN([C@H]6C2OC2(C)C)[C@H]13` (stereo partly drawn) was run?
**A.** Its activity, negative = inhibition is inconclusive: -75.2% [inhibitor].

**Q.** Which Potency does the source give for `O=C(/C=C/c1ccco1)Nc1ccccc1N1CCCCC1` here?
**A.** The Potency was active: 50.1 µM.

**Q.** `COc1cc(CCNc2ccc3nnc(-c4ccccc4)n3n2)cc(OC)c1OC` was tested. Which Potency did it give?
**A.** Its Potency is “inactive”.

**Q.** `CCCN1CCN(CCCNC(=O)c2ccc3c(c2)sc2nc(-c4ccc(OC)cc4)cn23)CC1` was tested. Which Potency did it give?
**A.** The Potency was “inactive”.

**Q.** With `C=Cc1ccc(N=Cc2c(O)ccc3ccccc23)cc1` as the compound, how does the Potency read?
**A.** Its Potency is active: 1.58 µM.

**Q.** For `N#C/C(=N\Nc1cccc(C(F)(F)F)c1)C(=O)c1csc(-c2cccnc2)n1`, which Potency is on record?
**A.** The Potency was inconclusive: 39.8 µM [inhibitor, single point].

**Q.** With `O=C(COC(=O)c1ccc(S(=O)(=O)N2CCCCCC2)cc1)NCc1ccc(Cl)cc1` as the compound, how does the Potency read?
**A.** Its Potency is “inactive”.

**Q.** For `Cn1c(SCC(=O)N2CCOCC2)ncc(C(=O)Nc2ccccc2)c1=O`, which Potency is on record?
**A.** The Potency was “inactive”.

**Q.** For `COc1ccc(Cl)cc1NC(=S)NCCc1c[nH]c2ccccc12`, which Potency is on record?
**A.** Its Potency is inconclusive: 44.7 µM [inhibitor, partial curve, poor fit].

**Q.** For `CCCOc1ccc(C(C)(O)CN2CCOCC2)cc1` (stereo not drawn), which activity, negative = inhibition is on record?
**A.** The activity, negative = inhibition was inactive: -35.4% [at 12.7 µM].

**Q.** How did the Potency turn out when `COc1ccc(/C=C2\SC(=S)N(CCCC(=O)Nc3ccccn3)C2=O)cc1OC` was run?
**A.** Its Potency is inconclusive: 6.31 µM [inhibitor, full curve].

**Q.** Which Potency does the source give for `Fc1ccc(-c2nnc(CN3CCN(c4ncc(C(F)(F)F)cc4Cl)CC3)o2)cc1` here?
**A.** The Potency was inconclusive: 35.5 µM [inhibitor, single point].
